According to publication PMC4336329 (PLoS ONE, 2015):
About 2,200 (0.71%) of roughly 310,000 compounds showed an effect of 50% or more. Effects have a minus sign here. The list shows a part of the results.

target: human ether-à-go-go-related gene (hERG) potassium channel (human, UniProt Q12809); experiment: primary screen, population patch clamp on CHO cells stably expressing hERG
Sequence (Q12809 whole entry, looked up): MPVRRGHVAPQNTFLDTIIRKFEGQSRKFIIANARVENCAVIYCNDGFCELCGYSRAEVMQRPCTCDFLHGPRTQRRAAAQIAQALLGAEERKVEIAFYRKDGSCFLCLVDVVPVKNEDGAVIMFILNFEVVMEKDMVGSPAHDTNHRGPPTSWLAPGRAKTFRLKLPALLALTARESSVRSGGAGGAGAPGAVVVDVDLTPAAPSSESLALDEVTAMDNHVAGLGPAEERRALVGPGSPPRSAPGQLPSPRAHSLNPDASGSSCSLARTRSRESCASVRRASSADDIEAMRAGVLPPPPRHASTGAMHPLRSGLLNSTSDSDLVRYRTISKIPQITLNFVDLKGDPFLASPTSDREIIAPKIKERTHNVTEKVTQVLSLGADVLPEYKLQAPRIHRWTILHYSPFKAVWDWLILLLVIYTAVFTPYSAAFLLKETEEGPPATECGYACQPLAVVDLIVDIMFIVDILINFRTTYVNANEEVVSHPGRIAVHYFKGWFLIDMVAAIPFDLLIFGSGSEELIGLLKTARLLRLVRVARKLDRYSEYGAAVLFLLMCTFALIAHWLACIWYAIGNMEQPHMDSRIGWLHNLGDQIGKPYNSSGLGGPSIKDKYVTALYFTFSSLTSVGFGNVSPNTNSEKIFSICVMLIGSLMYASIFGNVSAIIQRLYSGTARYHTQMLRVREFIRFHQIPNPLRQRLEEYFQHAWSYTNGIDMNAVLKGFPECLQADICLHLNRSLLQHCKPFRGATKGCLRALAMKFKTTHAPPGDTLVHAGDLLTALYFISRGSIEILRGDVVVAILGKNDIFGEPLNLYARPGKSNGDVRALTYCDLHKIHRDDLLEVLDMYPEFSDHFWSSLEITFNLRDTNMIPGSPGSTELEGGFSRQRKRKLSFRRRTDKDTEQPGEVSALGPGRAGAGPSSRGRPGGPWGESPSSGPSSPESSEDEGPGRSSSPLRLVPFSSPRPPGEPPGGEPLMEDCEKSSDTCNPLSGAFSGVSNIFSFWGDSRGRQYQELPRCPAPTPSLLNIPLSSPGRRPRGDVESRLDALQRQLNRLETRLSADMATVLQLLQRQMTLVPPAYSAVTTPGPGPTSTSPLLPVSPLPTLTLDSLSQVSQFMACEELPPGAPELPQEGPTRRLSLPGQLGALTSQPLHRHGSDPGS

Point of comparison: `O=C(NCCNc1ccc([N+](=O)[O-])cc1)c1cccc2c(Br)cccc12`, “hERG current change (%, negative = inhibition) at 1uM” value 8.49%. Against it:
- CC1=[N+](C)N(c2ccccc2)C(=O)C1N=Cc1ccccc1Cl (stereo not drawn) — lower, 3.3%
- Clc1ccc(Nc2ncn[nH]2)c(Cl)c1 — higher, 13.2%
- COc1ccc(CN2CCN(C(=O)CCC(=O)Nc3nnc(CC(C)C)s3)CC2)cc1F — lower, 5.66%
- COc1ccc(-c2cc(-c3n[nH]c(=S)n3-c3cc(OC)ccc3OC)[nH]n2)cc1 — higher, 11.9%
- Cc1ccccc1Nc1nc(N)nc(CSc2nc3ccccc3c(=O)n2CCCO)n1 — lower, 7.88%
- CCCCOC(=O)/C(=C/C=C/c1ccccc1)NC(=O)c1ccccc1 — higher, 8.86%
- N#CCc1c(C#N)c(N)nc(Nc2ccccc2)c1C#N — higher, 16.7%
- O=C(COc1ccccc1)N=C1SC2CS(=O)(=O)CC2N1c1ccccc1 (stereo not drawn) — higher, 12.9%
- S=C(NCc1ccco1)Nc1ccc(Cl)c(Cl)c1 — lower, 5.09%
- CCCc1ccc(OCC(O)CN2CCN(c3ccccc3)CC2)cc1.Cl (stereo not drawn) — lower, -9.04%
- Cn1c(=O)[nH]c(=O)c2c1ncn2CCN1CCOCC1 — lower, 8.41%
- Cc1ccc(Cl)cc1C1=CC(=O)C[C@H](c2ccc(F)cc2)C1 — higher, 12.1%
- Oc1ccc(/C=N/NC(=S)Nc2cccnc2)cc1O — higher, 11.7%
- Cc1ccc(NC(=O)c2cc(S(=O)(=O)N3CCc4ccccc43)cn2C)cc1 — lower, 1.73%
- O=C1C(=C(O)c2ccccc2)C(=O)c2ccccc21 — lower, -13.3%
- COc1ccc(/C=N/NC(=O)CC(=O)NC2CCCCC2)cc1 — higher, 12.9%
- O=C(CN1CCC(C(=O)c2ccc(F)cc2)CC1)Nc1ccc(F)cc1 — lower, -31.6%
- COc1ccc(NC(=S)NN2CCN(C)CC2)cc1OC — higher, 14.2%
- COCCNC(=O)Cn1cc2c(n1)CCC(C)C2 (stereo not drawn) — higher, 14.1%
- CCC(C)NC(=O)c1c(N)n(CC2CCCO2)c2nc3ccccc3nc12 (stereo not drawn) — higher, 11.7%
- O=C1CCc2cc(S(=O)(=O)NCCC(=O)NC3CCCCC3)ccc2N1 — higher, 11.2%
- CCOC(=O)/C(=C\c1ccc(OC)c(OC)c1)C(=O)c1cccnc1 — higher, 13.9%
- CNC(=S)N1CCN(CCNC2=CC(=O)CC(C)(C)C2)CC1 — higher, 18.7%
- CC12CCC(=O)N1C(C(=O)Nc1nnc(SCc3ccccc3F)s1)CS2 (stereo not drawn) — lower, -13.9%
- Cc1ccc2ncnc(Oc3ncccc3[N+](=O)[O-])c2c1 — higher, 13.3%
- CC(C)(C)NS(=O)(=O)c1ccc(NC(=O)NC2CCCCC2)cc1 — lower, -2.32%
- CCCOc1ccc(OC(=O)Cc2ccc(OC)c(S(=O)(=O)N3CCOCC3)c2)cc1 — lower, 6.26%
- O=c1[nH]c2ccc(NS(=O)(=O)c3ccc(F)c(Cl)c3)cc2[nH]1 — higher, 11.2%
- COc1cc(NS(=O)(=O)c2ccc(NS(=O)(=O)c3ccccc3)cc2)nc(OC)n1 — higher, 13.8%
- CCOC(=O)N1CCc2c(sc3ncn(Cc4ccc(F)cc4)c(=O)c23)C1 — higher, 14.6%
- CC(=O)Oc1ccc(C(=O)Nc2ccccc2NC(=O)c2ccc(OC(C)=O)cc2)cc1 — lower, 7.48%
- COc1ccc(CC(=O)NCCCCc2ccccc2)cc1OC — lower, 8.03%
- CCc1cc(=O)oc2cc(OCC(=O)O)c(Cl)cc12 — higher, 12.7%
- CCOC(=O)N1CCN(C(=O)c2ccc(Oc3ccc([N+](=O)[O-])cc3)cc2)CC1 — lower, -44.4%
- Cc1cc2ccccc2n2c(SCC(=O)NCc3cccs3)nnc12 — lower, 8.13%
- COc1cc(OC)c(NS(=O)(=O)c2c(C(=O)N3CCCCC3)c(C)n(C)c2C)cc1Cl — lower, 2.25%
- Cc1cc(NN)nc(NS(=O)(=O)c2ccccc2Cl)n1 — higher, 11.7%
- O=C(COC(=O)COc1ccc(Br)cc1)NCc1ccccc1 — lower, 2.44%
- CC1=C(C(=O)NCCN2CCN(C)CC2)C2(CCC(C)CC2)OC1=O (stereo not drawn) — lower, 7.67%
- Cc1ccccc1C(=O)c1cccn1CC(=O)NCCN1CCN(c2cccc(C)c2C)CC1 — lower, -14.3%
- O=C(NC12CC3CC(CC(C3)C1)C2)c1ccc(-c2ccc(Cl)cc2)o1 — higher, 10.9%
- C/C(=N\NC(=O)c1cccc(S(=O)(=O)N2CCOCC2)c1)c1ccc(OC(F)F)cc1 — lower, -10.6%
- COc1ccccc1N(C)S(=O)(=O)c1ccc(C(=O)OCC(=O)N(C)c2ccccc2)cc1 — higher, 10.4%
- CN(C)c1ccc(CNS(=O)(=O)c2ccc3c(c2)C(C)(C)C(=O)N3C)cc1 — lower, 5.79%
- NC(=O)c1sc2nc(-c3cccs3)ccc2c1N — higher, 11.2%
- Cc1cc(Cl)ccc1NC(=O)CN(C)C1=NS(=O)(=O)c2ccccc21 — higher, 10.6%
- COc1ccc(C(=O)NNC(=O)c2ccc(S(=O)(=O)N3CCOCC3)cc2)cc1 — higher, 11.7%
- Cc1cnc(C(=O)OCC(=O)Nc2ccccc2-c2ccccc2)cn1 — higher, 10.7%
- Cc1cccc(CCN(CC(=O)NCc2ccc(F)cc2)C(=O)c2csnn2)c1 — lower, 5.22%
- CCCCCCCCn1c(=O)c(C(=O)OC)c(N)c2ccccc21 — higher, 9.08%
- CC1(C)CC(=O)C=C(NNC(=O)c2ccc(N)cc2)C1 — lower, -0.802%
- Cc1nc(S(=O)(=O)N2CCN(C3c4ccccc4-c4ccccc43)CC2)cn1C — higher, 12.2%
- Cc1c(C)n(CC(O)CNCCO)c2ccccc12.O=C(O)C(=O)O (stereo not drawn) — higher, 12.3%
- CCOc1ccc(NC(=O)C(CC)n2nc(C)c3c(C)n(-c4ccccc4)nc3c2=O)cc1 (stereo not drawn) — lower, 3.52%
- Cl.Fc1ccc(OCCCCN2CCOCC2)cc1 — lower, 4.45%
- COc1ccccc1OCCCC(=O)Nc1ccc2c(c1)OCCO2 — higher, 16.5%
- CN(C(=O)c1ccc(OC2CCN(Cc3ccccn3)CC2)cc1)C1CCCCC1 — lower, -4.55%
- COc1ccc(Cl)cc1NC(=O)CCCN1C(=O)CCC1=O — higher, 11.7%
- CCCOc1ccc(N2C(=O)CC(N(CCc3ccc(OC)c(OC)c3)C(=S)Nc3ccccc3)C2=O)cc1 (stereo not drawn) — higher, 11.1%
- COC(=O)c1ccc(C(=O)OC)c(NC(=O)COc2ccccc2OC)c1 — lower, 7.73%
- Cc1sc2nc(CSCC(=O)N(C)c3ccccc3)[nH]c(=O)c2c1C — lower, 3.66%
- O=C(Nc1ccc(-c2nc3ccccc3o2)cc1)c1cccnc1 — higher, 11.4%
- CCN1C[C@]2(CO)CC[C@H](OC)[C@@]34C5C[C@H]6[C@H](OC)C5[C@](O)(C[C@H]6OC)[C@@](O)(C(OC)C23)[C@@H]14 (stereo partly drawn) — higher, 15%
- CCOC(=O)[C@H](CCc1ccccc1)N[C@@H](C)C(=O)N1Cc2ccccc2C[C@H]1C(=O)O.Cl — higher, 11.5%
- NC(=O)c1cc(-c2ccccc2)sc1NC(=O)Cc1ccc(S(=O)(=O)N2CCOCC2)s1 — higher, 10.7%
- COCCn1c(SCC(=O)Nc2ccc3c(c2)OCCO3)nnc1-c1c[nH]c2ccccc12 — lower, 6.58%
- CCN(CC)CCCn1c2c(c(SCC(=O)Nc3ccccc3Cl)nc1=O)CCC2 — lower, -16.6%
- Cc1ccc(-c2cc(NC(=O)CSc3n[nH]c(N)n3)n(-c3ccccc3)n2)cc1 — lower, 7.46%
- O=C(OCCN1C(=O)c2ccccc2C1=O)c1cccs1 — higher, 11.9%
- COc1ccc(-n2nc(C(=O)NCC(=O)N3CCCCCC3)c3ccccc3c2=O)c(OC)c1 — higher, 13.6%
- Clc1ccc(C2CC(c3ccco3)n3ncnc3N2)cc1Cl (stereo not drawn) — lower, 0.804%
- CCc1c(C)nc2ncnn2c1N1CCC(C(=O)NCc2ccc3c(c2)OCO3)CC1 — lower, -11.4%
- CC(=O)Nc1cc2nn(-c3ccccc3)nc2cc1Cl — higher, 8.74%
- CS(=O)(=O)N1CCN(C(=O)c2ccncc2)CC1 — lower, 1.75%
- CCOc1nc(Oc2cccc(C(=O)O)c2)nc(Oc2cccc(C(=O)O)c2)n1 — higher, 11.4%
- Cc1cc(NCC2CCCCC2)nc2ccccc12 — lower, 1.9%
- COc1ccc(OC)c(-c2cc(C(=O)Nc3sc4c(c3C#N)CCC(C)C4)c3ccccc3n2)c1 (stereo not drawn) — lower, -5.25%
- N#Cc1c(Cl)nsc1NN — higher, 18.9%
- Cc1cn(C2OC(COC(=O)c3ccccc3)C(OC(=O)c3ccccc3)C2OC(=O)c2ccccc2)c(=O)[nH]c1=O (stereo not drawn) — lower, 8.14%
- O=C(O)CC1(CC(=O)NCc2cccc(Cl)c2)CCCCC1 — higher, 13.6%
- O=C1CC(N2CCN(c3ccc(F)cc3)CC2)C(=O)N1c1ccccc1 (stereo not drawn) — lower, 6.38%
- COC(=O)c1ccccc1NC(=O)CSc1n[nH]c(C)n1 — lower, 7.61%
- Cc1cc(=O)[nH]c(SCC(=O)Nc2ccccc2C)n1 — higher, 13.7%
- CC(C)Cc1nnc(NC(=O)CCc2c[nH]c3ccccc23)s1 — lower, 7.1%
- CCOc1ccc(NC(=O)CN(c2cccc(C(F)(F)F)c2)S(C)(=O)=O)cc1 — lower, -2.42%
- CCN(CC)S(=O)(=O)c1ccc2oc(SCc3ccc(F)cc3)nc2c1 — lower, -17.5%
